# From PubChem BioAssay AID463173 (ICCB-Longwood Screening Facility, Harvard Medical School, 2010)
# The campaign covered roughly 52,000 compounds. About 1,700 (3.3%) were called active. Cut-off read from the data, not from the text of the source: active = survival mostly below about 52% (no sharp cut-off); inactive = mostly above about 56%. This is one part of the list.
# System: Wild type
# Assay: growth inhibition of S. aureus wild type versus tarO mutant, primary screen, teichoic acid synthesis inhibitors, RN4220, OD600 (AID 463173)
# Settings: S. aureus RN4220 wild type/DeltatarO growth, OD600, 18 h, stronger effect = lower value, screened at 18.75 µg/mL (by protocol)
row,Structure (SMILES),survival
1,O=C1S/C(=C/c2ccccc2)C(=O)N1c1ccccc1,inactive: 101%
2,CC(=O)c1cccc(NC(=O)CSc2nc3c(c(=O)[nH]2)CCC3)c1,inactive: 82%
3,c1ccc(CN2CCN(c3nc(N4CCOCC4)c4ccccc4n3)CC2)cc1,inactive: 102%
4,COc1ccc(-n2nc3ccc(NC(=O)c4c(OC)cccc4OC)cc3n2)cc1,inactive: 137%
5,O=C(Cn1c(=O)n(-c2ccc(F)cc2)c(=O)c2sc3ccccc3c21)NC1CCCC1,inactive: 88%
6,CCc1ccc2oc(C(=O)Nc3ccccc3OC)cc(=O)c2c1,inactive: 85%
7,CCC1CCCCN1S(=O)(=O)c1ccc(S(=O)(=O)n2cnc3cc(C)c(C)cc32)cc1 (stereo unspecified),inactive: 101%
8,CC(OC(=O)C1=Cc2ccccc2OC1)C(=O)NCC1CCCO1 (stereo unspecified),inactive: 108%
9,CCc1nc2ccccc2n2c(-c3ccc(C)cc3)c3c(=O)n(C)c(=O)n(C)c3c12,inactive: 75%
10,Fc1ccc(Nc2nc(SCc3ccccc3Cl)nc3ccccc23)cc1,inactive: 45%
11,Cc1cc(C)cc(NC(=O)C2CCCN(S(=O)(=O)c3cccc4nsnc34)C2)c1 (stereo unspecified),inactive: 124%
12,Cc1cccc(N2CCN(C(c3ccccc3)c3nnc(-c4ccccc4F)o3)CC2)c1C (stereo unspecified),inactive: 43%
13,CCOC(=O)c1c(C)[nH]c(C)c1S(=O)(=O)NCC(=O)Nc1ccc(C)cc1C,inactive: 64%
14,COc1ccc(CSc2nc3ccncc3n2CC(=O)Nc2cc(C)cc(C)c2)cc1,inactive: 81%
15,Cc1csc2nc(COC(=O)CNC(=O)c3ccc(F)cc3)cc(=O)n12,inactive: 74%
16,NC(=O)C1CCN(C(=O)c2ccc3c(c2)N(Cc2cccc(Cl)c2)C(=O)c2ccccc2S3=O)CC1 (stereo unspecified),inactive: 79%
17,CCOc1ccccc1NC(=O)C1CCC(CNS(=O)(=O)c2ccc3c(c2)CCCC(=O)N3)CC1 (stereo unspecified),inactive: 70%
18,Cc1ccc(C(=O)Nc2ccccc2C(=O)OCc2cc(=O)n3nc(C(C)C)sc3n2)cc1,inactive: 80%
19,COc1ccc(CC(=O)NCCS(=O)(=O)N2CCN(c3ccccc3F)CC2)cc1OC,inactive: 66%

row,Structure (SMILES),survival
1,Cc1ccc(Cl)cc1N1CCN(CCCNC(=O)Cn2ncc3c([nH]c4ccccc43)c2=O)CC1,inactive: 99%
2,Cc1ccc(C)c(NC(=O)CN(C)S(=O)(=O)c2cccc3cccnc23)c1,inactive: 85%
3,Cc1ccc(C)c(NC(=O)CSc2nc(-c3ccccc3)c(C#N)c(=O)[nH]2)c1,inactive: 113%
4,O=C(CC1N=C2c3ccccc3N=C(SCc3ccc(F)cc3)N2C1=O)NC1CCCCC1 (stereo unspecified),inactive: 146%
5,Cc1cccc(NC(=O)Cn2c(=O)n(Cc3ccccc3)c(=O)c3sc4ccccc4c32)c1,inactive: 133%
6,CCOc1ccc(N(C(=O)c2ccc(Cl)cc2)S(=O)(=O)c2ccc3c(c2)n(C)c(=O)n3C)cc1,inactive: 81%
7,CCOc1ccc(CCNC(=O)c2cccc(Nc3nc4ccccc4nc3-n3nc(C)cc3C)c2)cc1OCC,inactive: 94%
8,Cc1ccc(CNc2nc3ccc(Cl)cc3n3cnnc23)cc1,inactive: 93%
9,COC(=O)c1ccccc1NC(=O)C1=CC(c2ccc3c(c2)OCO3)=NS(=O)(=O)N1C,inactive: 85%
10,COc1ccc(S(=O)(=O)c2c(Nc3c(C)cccc3C)sc(C(=O)c3ccc(F)cc3)c2N)cc1,inactive: 120%
11,CCc1cccc(C)c1Nc1c(-c2ccc(SC)cc2)nc2sccn12,inactive: 83%
12,COc1ccc(CC(=O)N2N=C(c3ccncc3)CC2(O)C(F)(F)F)cc1 (stereo unspecified),inactive: 105%
13,Cc1cccc(-c2nc(CCNC(=O)COc3ccccc3)cs2)c1,inactive: 73%
14,Cc1ccc(CN(Cc2ccco2)C(=O)c2ccc(Cl)cc2Cl)cc1,inactive: 84%
15,Cc1cccc(NC(=O)CSc2ncc(-c3ccc(Br)cc3)[nH]2)c1,inactive: 147%
16,O=C(CSc1ccc(-c2cccs2)nn1)Nc1ccccc1,inactive: 86%
17,COc1cccc(CNc2nc3ccccc3c3nc(-c4cccc(C)c4)nn23)c1,inactive: 31%
18,CC(=O)c1cccc(NC(=O)Nc2c(C)n(C)n(-c3ccccc3)c2=O)c1,inactive: 121%
19,COc1ccc(-c2cc(-c3ccccc3)nc(SCC(=O)Nc3ccccc3C)c2C#N)cc1,inactive: 70%

row,Structure (SMILES),survival
1,CCN1CCc2c(sc(NC(=O)c3ccc(S(=O)(=O)N(CCOC)CCOC)cc3)c2C(N)=O)C1,inactive: 68%
2,Cc1ccc(-c2nc3cc(NC(=O)c4cc5ccccc5o4)ccc3o2)cc1Cl,inactive: 137%
3,O=C(c1ccc(Cl)cc1)N1CCCC1,inactive: 102%
4,CCOCCCn1c(SCC(=O)Nc2cc(C)ccc2C)nc2c(oc3ccccc32)c1=O,inactive: 83%
5,COC(=O)c1ccc(NC(=O)CN2CCCN(Cc3ccc(Cl)cc3)S2(=O)=O)cc1,inactive: 110%
6,Cc1ccc(Sc2c(C(=O)NCc3cccc(F)c3)[nH]c3ccccc23)cc1,inactive: 89%
7,CC(C)Oc1ccc(CN2CCc3nc(Nc4ccc5c(c4)OCCO5)ncc3C2)cc1,inactive: 85%
8,CCn1c(CSc2ncccn2)nnc1SCC(=O)N1CCCCC1,inactive: 99%
9,CC(NC(=O)CN1C(=O)COc2ccc(S(=O)(=O)N3CCCCCC3)cc21)c1ccccc1 (stereo unspecified),inactive: 75%
10,CN(C)CCNC(=O)c1ccc(-n2c(-c3ccccc3)cc3c2CCCCC3)cc1,inactive: 17%
11,COc1ccc(N2CCN(C(=O)CNC3CC3)CC2)cc1,inactive: 98%
12,O=C(COc1ccc(Cl)cc1)N(Cc1ccco1)Cc1ccco1,inactive: 74%
13,COc1ccc(OC)c(NC(=O)CSC2=Nc3ccccc3C3=NC(CCC(=O)NCc4ccccc4)C(=O)N23)c1 (stereo unspecified),active: -3%
14,Cc1nc2ccn(Cc3cccs3)c(=O)c2cc1C(=O)NCc1ccc(Br)cc1,inactive: 82%
15,COc1ccccc1CNC(=O)CCC(=O)N1CC(C)Sc2ccccc21 (stereo unspecified),inactive: 105%
16,Cc1c(C(=O)N(C)C)sc2c1c(=O)n(-c1ccc(Cl)c(Cl)c1)c(=O)n2CC(=O)C(C)(C)C,inactive: 74%
17,COc1ccc(C(=O)Nc2cccc(-c3cn4ccsc4n3)c2)c(OC)c1,inactive: 81%
18,O=S(=O)(Nc1cccc(C(F)(F)F)c1)c1ccc(NS(=O)(=O)c2ccc3c(c2)OCCO3)cc1,inactive: 30%
